# Assay results reported in PubChem BioAssay AID1347417 (National Center for Advancing Translational Sciences (NCATS), 2020).
# Values joined by “and” are separate entries in the source; they are usually repeats but may differ in a detail not shown here. Identical values can stand only once. The whole screen tested about 120,000 compounds, of which about 5,300 (4.4%) were called active. Inconclusive means that the source gave no clear call. Such entries were picked first, then a sample of the others. The call rests on the fitted dose curve; in most records, active means well fitted inhibition curve with a large enough effect; inconclusive means small, poorly fitted or top-dose-only effect; inactive means no such curve, though single readings can be large or run the other way. Potencies of inconclusive entries are doubtful fits and often do not repeat.
# Assay: qHTS Primary assay for Inhibitors of Plasmodium falciparum Dd2 growth in vitro; further: nearly all actives have a fitted effect of over 65% in size;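 on activity, negative = inhibition: plate controls were DMSO vehicle for no effect and reference drug for full effect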
# Conditions: P. falciparum Dd2 growth, SYBR Green, 72 h; activity, negative = inhibition: at 28.9 µM (top of the series) unless noted; series mostly up to 28.9 µM
# Summary of the method: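 Readout: SYBR Green fluorescence, 485 nm excitation, 535 nm emission, after ~16 h lysis at 37C. Before that, Dd2-infected red cells (2.5% hematocrit) grew 72 h with compound, 29 uM top final concentration.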
# Potency means the concentration at half of the fitted maximal effect; tags describe the fitted curve by direction and shape.
SMILES,Potency,"activity, negative = inhibition",outcome
CCc1ccccc1CN1CCC(CO)(CN2CCCC2)CC1,"inconclusive: 0.794 µM [inhibitor, full curve, poor fit]",–,–
CC(=O)N1CCN(Cc2nnc3cc(-c4nc(-c5ccccc5)no4)ccn23)CC1,"inconclusive: 5.01 µM [inhibitor, partial curve, poor fit]",–,–
O=C(NCCC1CCN(C(=O)Nc2ccccc2)CC1)c1ccc(F)cc1,"inconclusive: 12.6 µM [inhibitor, single point]",–,–
Cc1noc(C)c1CN1CCC2(CC1)CC(c1ccccc1)C(=O)N2C (stereo not drawn),–,inactive: -6.33%,–
CCc1nc2c(c(-c3ccc(Cl)cc3)n1)CCN(Cc1ccc(OC)cc1)CC2,"inconclusive: 3.98 µM [inhibitor, single point]",–,–
CCCN1CCN(C(=O)Cc2cccn2-c2ccc(F)cc2)CC1,–,–,inactive
Fc1cc(Nc2cnc3ccc(-c4ccccc4)nn23)cc(N2CCOCC2)c1,"inconclusive: 3.16 µM [inhibitor, partial curve, poor fit]",–,–
O=C(NCc1cccs1)c1ccc2nccn2c1,inactive,–,–
CCOc1ccc(CC(=O)NC2CCN(c3cc(-c4ccc(Cl)cc4)[nH]n3)CC2)cc1OCC,–,–,inactive
CCN(CC)CCN(C(=O)c1ccco1)c1nc2ccc(F)cc2s1,"inconclusive: 17.8 µM [inhibitor, single point]",–,–
Cc1ccc(NC(=O)O[C@@H]2CC[C@]3(C)[C@H](CC[C@H]4OC(=O)C[C@H]43)[C@]2(C)CO)cc1,–,–,inactive [at 44.1 µM]
CSc1cccc(NC(=O)O[C@@H]2CC[C@]3(C)C(CC[C@@H](O)[C@H]3CC(=O)NCc3ccccc3)[C@]2(C)CO)c1 (stereo partly drawn),active: 11.2 µM,–,–
COCCN1CCC2(C1)CN(C)c1ccc(C(=O)NCC3CC3)cc12 (stereo not drawn),–,inactive: 16.3% [at 44.1 µM],–
O=C(COc1ccc(F)cc1)N1CCC(c2noc(C3CC3)n2)C1 (stereo not drawn),–,–,inactive [at 5.79 µM]
CC1(C(=O)N2CCN(c3ccccn3)CC2)CCCCC(=O)N1 (stereo not drawn),–,inactive: 1.75%,–
O=C(Nc1ccc(Cl)c(C(F)(F)F)c1)c1nc2ccccc2nc1N1CCCCC1,"inconclusive: 12.6 µM [inhibitor, single point]",–,–
Cc1nn2c(c1-c1ccnn1C(C)C)N(Cc1ccc3c(c1)CCO3)CCC2,–,inactive: -19.3% [at 44.1 µM],–
COC(=O)c1ccc(CN2C(=O)[C@@H]3C[C@@H](O)CN3C3(CN(Cc4ccccc4Cl)C3)C2=O)cc1,"inconclusive: 11.2 µM [inhibitor, partial curve, poor fit]",–,–
COc1ccc2ccccc2c1CNC1CCN(c2ccc(C(=O)N3CCOCC3)cc2)CC1,"inconclusive: 15.8 µM [inhibitor, partial curve, poor fit]",–,–
O=C(O)C1CN(Cc2ncc[nH]2)CCN(C(=O)Cc2cccs2)C1 (stereo not drawn),–,inactive: -1.17%,–
N[C@H]1CCN2C(=O)c3cc(-c4ccc(Cl)cc4)ccc3NC(=O)[C@@H]2C1,–,–,inactive [at 44.1 µM]
CCOc1ccc(NC(=O)CCc2c(C)nc3nc(-c4cc(OC)cc(OC)c4)nn3c2C)cc1,"inconclusive: 10 µM [inhibitor, partial curve, poor fit]",–,–
COc1cccc(NC(=O)/C(C#N)=C/c2c(C)n(Cc3ccccc3)c3ccccc23)c1,"inconclusive: 10 µM [inhibitor, single point]",–,–

SMILES,Potency,"activity, negative = inhibition",outcome
O=C1Nc2ccccc2CC12CCN2Cc1ccncc1 (stereo not drawn),–,inactive: -9.98% [at 44.1 µM],–
Cc1ccc(N2CCN(Cc3nnc(-c4ccccc4F)o3)CC2)c(C)c1,"inconclusive: 20 µM [inhibitor, single point]",–,–
O=C(C1CCOCC1)N1CC(CO)C2(CCNCC2)C1 (stereo not drawn),–,inactive: 17%,–
COc1ccccc1C(=O)N1CCC2(C1)C(=NC1CCCC1)NC(=O)N2c1cc(F)cc(F)c1 (stereo not drawn),–,inactive: -6.44%,–
CSc1ccc(/C=C/c2nc3ccccc3n2S(=O)(=O)c2ccc(Br)cc2)cc1,"inconclusive: 12.6 µM [inhibitor, partial curve, poor fit]",–,–
CN1C(=O)c2cccn2CC1CNC(=O)C1CCCC1 (stereo not drawn),–,inactive: 19.1%,–
CCOC(=O)c1ccc(Nc2nc(-c3ccccc3)no2)cc1,"inconclusive: 14.1 µM [inhibitor, single point]",–,–
Cc1cc(-c2nn(-c3ccccc3F)cc2CN(C)C(C)c2ccon2)c(C)s1 (stereo not drawn),"inconclusive: 17.8 µM [inhibitor, single point]",–,–
COc1ccc(CCC(=O)N2CCC3(CC2)CC(Cc2nc(-c4cccnc4)no2)CCO3)cc1 (stereo not drawn),"inconclusive: 11.2 µM [inhibitor, partial curve, poor fit]",–,–
COC1CCOC2(CCN(C(=O)Nc3cccc(C)c3)CC2)C1 (stereo not drawn),–,inactive: 17.9%,–
Cc1nn(C)c2ncnc(NCc3nn[nH]n3)c12,–,inactive: -1.12%,–
CCOc1ccccc1CN1CCC2(CCN(C(=O)c3ccc(C)cc3)CC2)Oc2ccccc21,–,inactive: -2.9%,–
c1cnc2[nH]cc(-c3nc4ccncc4[nH]3)c2c1,"inconclusive: 25.1 µM [inhibitor, single point] and active: 10 µM",–,–
CS(=O)(=O)c1ccc(CN2C[C@H](O)C[C@H]2c2nc(-c3ccc4c(c3)OCO4)no2)cc1,–,–,inactive
Cc1cccn2c(=O)c3cc(C#N)c(=O)n(-c4nnc(SCc5ccc(F)cc5)s4)c3nc12,"inconclusive: 10 µM [inhibitor, single point]",–,–
COCc1cn([C@H]2CO[C@H]3[C@@H]2OC[C@@H]3NC(=O)c2ccc(C(F)(F)F)cc2)nn1,–,–,inactive [at 44.1 µM]
Cn1nc2n(c1=O)CCN(C(=O)NC1CCCCC1)CC2,–,inactive: 4.43%,–
CCN1CCN(c2ncc3c(n2)CCN(Cc2cccc(F)c2F)C3)CC1,–,inactive: 32.2% [at 5.79 µM],–
Cc1cccc(NC(=O)CN(C)S(=O)(=O)c2ccc3c(c2)CCC(=O)N3)c1C,"inconclusive: 4.47 µM [inhibitor, partial curve, poor fit]",–,–
Cc1ccc(-n2nc(C)c([C@@H]3C=C[C@@H](NS(=O)(=O)c4cccs4)C3)c2C)cc1Cl,active: 11.2 µM,–,–
O=C1NCc2ccccc2CC12CCN(Cc1cccc(O)c1)C2 (stereo not drawn),"inconclusive: 12.6 µM [inhibitor, single point]",–,–
CC(C)C(=O)NCC12CCCC=C1NC(=O)CC2 (stereo not drawn),–,inactive: -10.4%,–
O=C(NCC1CC1)C1(CCO)CCN(Cc2ccccc2)C1 (stereo not drawn),"inconclusive: 7.08 µM [inhibitor, partial curve, poor fit]",–,–

SMILES,Potency,"activity, negative = inhibition",outcome
Cc1nn(CC(=O)N2CCCCCC2)c(=O)c2nc(-c3ccccc3)sc12,"inconclusive: 2.82 µM [inhibitor, partial curve, poor fit]",–,–
COc1cc([N+](=O)[O-])ccc1NC(=O)N1CCC2(CC1)Nc1ccccc1-n1cccc12,"inconclusive: 17.8 µM [inhibitor, single point]",–,–
COc1ccc(-c2cc(C(F)(F)F)n3ncc(-c4ccccc4)c3n2)cc1,"inconclusive: 14.1 µM [inhibitor, partial curve, poor fit]",–,–
COC(=O)c1ccc2c(=O)n(CCc3ccc(S(N)(=O)=O)cc3)c(SCC(=O)C(C)(C)C)nc2c1,"inconclusive: 10 µM [inhibitor, partial curve]",–,–
Cc1cccc(Nc2cc(C)nc(-n3nc(C)cc3C)n2)c1,active: 5.62 µM,–,–
Cc1c(C(=O)Nc2ccc(F)cc2)oc2ccc(S(=O)(=O)N3CCCCCC3)cc12,"inconclusive: 10 µM [inhibitor, single point]",–,–
CCc1cccc(N2C(=O)CS(=O)(=O)C23C(=O)N(Cc2ccccc2)c2ccc(C)cc23)c1 (stereo not drawn),"inconclusive: 17.8 µM [inhibitor, single point]",–,–
Cc1cccc(C(=O)N2c3ncnn3C3(CCCCC3)[C@@H]3CCCC[C@@H]32)c1,"inconclusive: 10 µM [inhibitor, single point]",–,–
COc1ccc(CCC(=O)NC(C)C(=O)N2CCN(c3ccccn3)CC2)cc1 (stereo not drawn),–,–,inactive
Cc1nn(-c2ccc(C(C)(C)C)cc2)c(C)c1[C@@H]1C=C[C@@H](NC(=O)c2ccco2)C1,"inconclusive: 1.41 µM [inhibitor, full curve, poor fit]",–,–
COc1cccc(C(=O)N(C)Cc2cccc(C(F)(F)F)c2)c1,–,inactive: -25.6% [at 44.1 µM],–
COCCNC(=O)Cc1c[nH]c2ncc(-c3ccc(OC)cc3)cc12,"inconclusive: 3.16 µM [inhibitor, single point]",–,–
CCc1cccc(NC(=O)C2Cn3cccc3C(=O)N2)c1 (stereo not drawn),–,–,inactive
CCN(CC)C(=O)c1ccc2c(c1)N(Cc1ccccc1F)C(=O)c1ccccc1S2=O (stereo not drawn),"inconclusive: 12.6 µM [inhibitor, single point]",–,–
CCn1nccc1C(=O)N1CCCC(c2noc(COc3ccccc3)n2)C1 (stereo not drawn),"inconclusive: 1.41 µM [inhibitor, partial curve, poor fit]",–,–
COc1ccccc1CN[C@H]1CC(C)(C)[C@@H]2C[C@@](C)(O)CC[C@]12CCC(=O)NC1CC1,"inconclusive: 5.62 µM [inhibitor, single point]",–,–
OCc1cccc(-c2ccc3ncc(Nc4ccc(OCCN5CCCC5)cc4)n3n2)c1,active: 0.794 µM,–,–
COc1ccc(CNC(=O)[C@@H](C)C2CC[C@@]3(C)CC[C@H](NC(=O)c4cncnc4)[C@@H](C)[C@@H]3[C@H]2O)cc1OC (stereo partly drawn),"inconclusive: 6.31 µM [inhibitor, partial curve, poor fit]",–,–
COCC1CN(Cc2ccc(C(F)(F)F)cc2)CC12CCNCC2 (stereo not drawn),"inconclusive: 2.51 µM [inhibitor, partial curve]",–,–
COc1ccc(C(=O)N2C[C@@H](Oc3cccnc3)C[C@H]2C(N)=O)c(OC)c1,–,inactive: 7.78%,–
c1cc(CC2CN3CCCC3CN2)cs1 (stereo not drawn),"inconclusive: 12.6 µM [inhibitor, partial curve]",–,–
COc1cccc(NC(=O)Nc2ccc3snnc3c2)c1,"inconclusive: 12.6 µM [inhibitor, single point]",–,–
